Molecular target: human Cav2.2 (Homo sapiens, UniProt Q00975)
Experiment: In vitro assessment of calcium channel activity using FLIPR (Ca2+ influx in IMR32 cells)
Assay type: cell-based
Settings: IMR32 cells endogenously expressing human Cav2.2; 60 minute pre-incubation; 2 μM nifedipine; depolarized with 80 mM KCl; average of at least two runs unless marked (*)

**Q.** With `O=C(Sc1ccc(C(F)(F)F)cn1)N1CCN2C[C@H](Oc3cnc(C4CC4)cn3)C[C@H]2C1` [Example 130] as the compound, how does the IC50 read?
**A.** The IC50 was 1000 nM.
